Measurements reported in the supplement of paper PMC9151546.
Many values rest on one well or one pass, so single values are uncertain.

Key:
CHO-K1 [1] = experiment: relative survival (nuclei to bead ratio vs DMSO control) (% of vehicle control); higher = more surviving cells
Experimental: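 Flow-cytometric in vitro micronucleus assay (Litron MicroFlow) in CHO-K1 cells in 96-well plates, 19 concentrations (4.5-200 µM, n=1 per concentration). Without S9, cells were exposed for 24 h and sampled at 48 h. With Aroclor 1254-induced rat liver S9, cells were exposed for 3-4 h and sampled at 27-28 h. Read-outs are %MN and %hypodiploid nuclei relative to nucleated events, and relative survival as the nuclei-to-bead ratio versus the 1% DMSO vehicle control (x100).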

CHO-K1 [2] = experiment: micronucleus frequency (% of nucleated events); higher = more micronuclei (genotoxic)
CHO-K1 [3] = experiment: hypodiploid nuclei frequency (% of nucleated events); higher = more hypodiploid events (aneugenic)
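Wherever hypodiploid nuclei frequency (% of nucleated events) is given: hypodiploid nuclei gated on a flow cytometer with 488 nm excitation after SYTOX Green staining, cultures at 37 °C, positive controls vinblastine without S9 and cyclophosphamide with S9.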
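Wherever micronucleus frequency (% of nucleated events) is given: cells lysed with nuclei stained by SYTOX Green, then micronucleus-gated events counted against nucleated events by flow cytometry with 488 nm excitation.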
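Wherever relative survival (nuclei to bead ratio vs DMSO control) is given: Lysed-cell nuclei stained with SYTOX Green and counted against counting beads by flow cytometry at 488 nm excitation, with vinblastine (no S9) and cyclophosphamide (plus S9) as positive controls.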

CCCCCCOC(=O)c1ccccc1C(=O)OCCCCCC [Dihexyl phthalate]
Settings	hypodiploid nuclei frequency, CHO-K1 [3] [%]	micronucleus frequency, CHO-K1 [2] [%]	relative survival, CHO-K1 [1]
concentration: 4.5 (µM), S9 metabolic activation: with S9, exposure time: 3-4 hours	0.28	1.16	114
concentration: 4.5 (µM), S9 metabolic activation: without S9, exposure time: 24 hours	0.58	1.6	78.3
concentration: 5.63 (µM), S9 metabolic activation: with S9, exposure time: 3-4 hours	0.22	1.1	126
concentration: 5.63 (µM), S9 metabolic activation: without S9, exposure time: 24 hours	0.58	1.26	75
concentration: 7.04 (µM), S9 metabolic activation: with S9, exposure time: 3-4 hours	0.12	0.96	121
concentration: 7.04 (µM), S9 metabolic activation: without S9, exposure time: 24 hours	0.52	1.4	78.3
concentration: 8.8 (µM), S9 metabolic activation: with S9, exposure time: 3-4 hours	0.38	1.24	124
concentration: 8.8 (µM), S9 metabolic activation: without S9, exposure time: 24 hours	0.6	1.22	94.3
concentration: 11 (µM), S9 metabolic activation: with S9, exposure time: 3-4 hours	0.2	0.9	127
concentration: 11 (µM), S9 metabolic activation: without S9, exposure time: 24 hours	0.58	1.32	90.2
concentration: 13.7 (µM), S9 metabolic activation: with S9, exposure time: 3-4 hours	0.4	0.9	126
concentration: 13.7 (µM), S9 metabolic activation: without S9, exposure time: 24 hours	0.52	1.02	97.9
concentration: 17.2 (µM), S9 metabolic activation: with S9, exposure time: 3-4 hours	0.36	1.26	119
concentration: 17.2 (µM), S9 metabolic activation: without S9, exposure time: 24 hours	0.38	1.26	92.4
concentration: 21.5 (µM), S9 metabolic activation: with S9, exposure time: 3-4 hours	0.18	1.06	108
concentration: 21.5 (µM), S9 metabolic activation: without S9, exposure time: 24 hours	0.68	1.78	82.8
concentration: 26.8 (µM), S9 metabolic activation: with S9, exposure time: 3-4 hours	0.28	1.08	141
concentration: 26.8 (µM), S9 metabolic activation: without S9, exposure time: 24 hours	0.74	2.38	53.5
concentration: 33.6 (µM), S9 metabolic activation: with S9, exposure time: 3-4 hours	0.1	1	117
concentration: 33.6 (µM), S9 metabolic activation: without S9, exposure time: 24 hours	0.74	2.16	69
concentration: 41.9 (µM), S9 metabolic activation: with S9, exposure time: 3-4 hours	0.32	1.2	115
concentration: 41.9 (µM), S9 metabolic activation: without S9, exposure time: 24 hours	0.76	2.08	45.6
concentration: 52.4 (µM), S9 metabolic activation: with S9, exposure time: 3-4 hours	0.34	1.32	92.6
concentration: 52.4 (µM), S9 metabolic activation: without S9, exposure time: 24 hours	0.48	2.16	44.7
concentration: 65.5 (µM), S9 metabolic activation: with S9, exposure time: 3-4 hours	0.28	1.24	132
concentration: 65.5 (µM), S9 metabolic activation: without S9, exposure time: 24 hours	–	–	38
concentration: 81.9 (µM), S9 metabolic activation: with S9, exposure time: 3-4 hours	0.12	1.24	124
concentration: 81.9 (µM), S9 metabolic activation: without S9, exposure time: 24 hours	0.54	2.2	54.5
concentration: 102 (µM), S9 metabolic activation: with S9, exposure time: 3-4 hours	0.32	1.38	124
concentration: 102 (µM), S9 metabolic activation: without S9, exposure time: 24 hours	–	–	38.8
concentration: 128 (µM), S9 metabolic activation: with S9, exposure time: 3-4 hours	0.28	1.76	114
concentration: 128 (µM), S9 metabolic activation: without S9, exposure time: 24 hours	0.68	2.44	51.8
concentration: 160 (µM), S9 metabolic activation: with S9, exposure time: 3-4 hours	0.36	1.22	109
concentration: 160 (µM), S9 metabolic activation: without S9, exposure time: 24 hours	–	–	37.4
concentration: 200 (µM), S9 metabolic activation: with S9, exposure time: 3-4 hours	0.22	1.4	111
concentration: 200 (µM), S9 metabolic activation: without S9, exposure time: 24 hours	0.6	1.8	43.6

Cc1ccc(N(C)C)cc1 [N,N,4-Trimethylaniline]
Settings	hypodiploid nuclei frequency, CHO-K1 [3] [%]	micronucleus frequency, CHO-K1 [2] [%]	relative survival, CHO-K1 [1]
concentration: 4.5 (µM), S9 metabolic activation: with S9, exposure time: 3-4 hours	0.16	0.9	138
concentration: 4.5 (µM), S9 metabolic activation: without S9, exposure time: 24 hours	0.92	2.18	154
concentration: 5.63 (µM), S9 metabolic activation: with S9, exposure time: 3-4 hours	0.3	1.3	120
concentration: 5.63 (µM), S9 metabolic activation: without S9, exposure time: 24 hours	0.78	1.64	138
concentration: 7.04 (µM), S9 metabolic activation: with S9, exposure time: 3-4 hours	0.16	1.06	139
concentration: 7.04 (µM), S9 metabolic activation: without S9, exposure time: 24 hours	1.02	1.8	132
concentration: 8.8 (µM), S9 metabolic activation: with S9, exposure time: 3-4 hours	0.12	1.2	171
concentration: 8.8 (µM), S9 metabolic activation: without S9, exposure time: 24 hours	0.7	1.7	185
concentration: 11 (µM), S9 metabolic activation: with S9, exposure time: 3-4 hours	0.2	1.16	164
concentration: 11 (µM), S9 metabolic activation: without S9, exposure time: 24 hours	0.8	2.3	163
concentration: 13.7 (µM), S9 metabolic activation: with S9, exposure time: 3-4 hours	0.16	0.76	153
concentration: 13.7 (µM), S9 metabolic activation: without S9, exposure time: 24 hours	0.64	1.78	147
concentration: 17.2 (µM), S9 metabolic activation: with S9, exposure time: 3-4 hours	0.2	1.1	147
concentration: 17.2 (µM), S9 metabolic activation: without S9, exposure time: 24 hours	0.82	1.84	140
concentration: 21.5 (µM), S9 metabolic activation: with S9, exposure time: 3-4 hours	0.12	0.94	175
concentration: 21.5 (µM), S9 metabolic activation: without S9, exposure time: 24 hours	0.72	1.6	169
concentration: 26.8 (µM), S9 metabolic activation: with S9, exposure time: 3-4 hours	0.12	1.16	147
concentration: 26.8 (µM), S9 metabolic activation: without S9, exposure time: 24 hours	1.16	1.78	110
concentration: 33.6 (µM), S9 metabolic activation: with S9, exposure time: 3-4 hours	0.2	1.1	120
concentration: 33.6 (µM), S9 metabolic activation: without S9, exposure time: 24 hours	0.92	2.22	129
concentration: 41.9 (µM), S9 metabolic activation: with S9, exposure time: 3-4 hours	0.2	1.26	165
concentration: 41.9 (µM), S9 metabolic activation: without S9, exposure time: 24 hours	1.26	1.74	132
concentration: 52.4 (µM), S9 metabolic activation: with S9, exposure time: 3-4 hours	0.2	1.16	141
concentration: 52.4 (µM), S9 metabolic activation: without S9, exposure time: 24 hours	1.28	1.96	126
concentration: 65.5 (µM), S9 metabolic activation: with S9, exposure time: 3-4 hours	0.28	1.28	182
concentration: 65.5 (µM), S9 metabolic activation: without S9, exposure time: 24 hours	1.16	1.76	118
concentration: 81.9 (µM), S9 metabolic activation: with S9, exposure time: 3-4 hours	0.28	1.2	182
concentration: 81.9 (µM), S9 metabolic activation: without S9, exposure time: 24 hours	0.78	1.64	109
concentration: 102 (µM), S9 metabolic activation: with S9, exposure time: 3-4 hours	0.24	1.58	162
concentration: 102 (µM), S9 metabolic activation: without S9, exposure time: 24 hours	1.18	1.86	151
concentration: 128 (µM), S9 metabolic activation: with S9, exposure time: 3-4 hours	0.16	1.4	162
concentration: 128 (µM), S9 metabolic activation: without S9, exposure time: 24 hours	1.22	2.28	133
concentration: 160 (µM), S9 metabolic activation: with S9, exposure time: 3-4 hours	0.26	1.48	200
concentration: 160 (µM), S9 metabolic activation: without S9, exposure time: 24 hours	1.28	2.44	119
concentration: 200 (µM), S9 metabolic activation: with S9, exposure time: 3-4 hours	0.18	1.48	179
concentration: 200 (µM), S9 metabolic activation: without S9, exposure time: 24 hours	1.68	2.86	109
